This note sets out measurements from PMC12136788.

The list shows a part of the results.

B1: chr22:16590879:16592550:-|CDS|ENSG00000198445|control|control|control (ssRNA)
RNA: GGGAGUUCUACAGUCCGACGAUCCCAAGGAUUUCGAGCAGUGGCUGAGGUGGUGCUACAGCUCGUGACUGUAGAUGAAAUCGUAGUGGCCAAGAAAAGUCCCACACAUCAGGAGAUCUGGAAUCCUGACUCUAAGAAGACAAACAACAGAGGAUUGAGCAUCA
B2: chr12:48653210:48654175:-|three_prime_utr|ENSG00000139620|control|control|control (ssRNA)
RNA: GGGAGUUCUACAGUCCGACGAUCGCACCAUUGUCUCAGAGUGGAUUGGCUACUGCAAAUGGGAAGCCAGAACCCACUUCUAUUAGUUGAUAGUUUGGGGAACCAUUUUACUUUGGUGGAUUUAAAUUUCUCGUUCUUCAAAGACAACAGAGGAUUGAGCAUCA
B3: chr9:77717828:77717929:-|3pUTR|ENSG00000156052|unk|FALSE|unique (ssRNA)
RNA: GGGAGUUCUACAGUCCGACGAUCGUGCCUCAUAUCUGAAACAAAGGGAAAUAACACACCCAUUCAAAAGUAAAUAAAUCUCCUAGAAGUUUUUGUUUUUAACAUUUCCAUAUAAAGAGCUCUGUUGAAUGUCAUGAAUAGACUCAACAGAGGAUUGAGCAUCA
B4: ENSG00000163697:stop:overlap|stop_codon|ENSG00000163697|stop_codon|NA|stop_codon (ssRNA)
RNA: GGGAGUUCUACAGUCCGACGAUCGAGGGGUCUUAUCCCUCAUUGACACUUUGAAACAGAAACGCCCUGUCACCGAAAUGCCAUAGCUGCACAUGCAAAAGGACUCGGCUAUUUACCUGAAGAUUGACUAGCUACACUAAAGAACAACAGAGGAUUGAGCAUCA
B5: ENSG00000136451:be:win_901|CDS|ENSG00000136451|bound_else_gene|NA|bound_elsewhere_windowed (ssRNA)
RNA: GGGAGUUCUACAGUCCGACGAUCAUCACCAGCCACUUAAAGACUCAUGGGCAGAGCCAAAGUAUCAACUGUAAUACAUGUAAACAAGGCAUCAGUAAAACAUGCAUGAGUGAAGAGACCAGUAACCAAAAGCAGCAGCAGCAGCAACAGAGGAUUGAGCAUCA
B6: chr6:52279506:52279615:-|CDS|ENSG00000112118|unk|FALSE|unique (ssRNA)
RNA: GGGAGUUCUACAGUCCGACGAUCUGAGUGUGGCAUUUUUAAGACAGGACGGAGAUCACUCUGUCCCUCUGUGUGCCUUUUUCUAGGAUGAGGAGAACAAUCCCCUUGAGACAGAAUAUGGCCUUUCUGUCUACAAGGAUCACCCAACAGAGGAUUGAGCAUCA
B7: chr17:69546800:69546959:+|3pUTR|ENSG00000108984|unk|total|mutant (ssRNA)
RNA: GGGAGUUCUACAGUCCGACGAUCUCAACUUCACCGGACUUUUUUUUUUUUUAACUUUUCAAAUGGAAGGUGCAGUUUUCAAUCCGGCCUCUGAAAAUUUACACCGUCAGAUGGAAAAAUGCCAGAGUAAAAUCCCGGAAGAAGCAACAGAGGAUUGAGCAUCA
B8: chr11:61403655:61403707:-|3pUTR|ENSG00000149532|msi1_unk|total|mutant (ssRNA)
RNA: GGGAGUUCUACAGUCCGACGAUCUGAAGUAACCAGGAGGAAUGGGGAAAGAAGCAAGUUGGGCAGGAUAUGGCCUACUUCCACCGGCUUUUCUUUUUUCAGGUUUGAUGUAAGCAUGGGCUUACAUCCCCCAGGUACAUACUUCAACAGAGGAUUGAGCAUCA
B9: chr12:24811411:24811512:-|3pUTR|ENSG00000060982|msi1|FALSE|unique (ssRNA)
RNA: GGGAGUUCUACAGUCCGACGAUCGUGAAGAACUCUAUAUUUGUAUGUUGAGAGGGCAUGGAAUAAUUGUAUUUUGCUGGCAAUAGACACAUUCUUUAUUAUUUGCAGAUUCCUCAUCAAAUCUGUAAUUAUGCACAGUUUCUGCAACAGAGGAUUGAGCAUCA
B10: ENSG00000005810:stop:overlap|stop_codon|ENSG00000005810|stop_codon|NA|stop_codon (ssRNA)
RNA: GGGAGUUCUACAGUCCGACGAUCCACCCACUGGGGAAGAGUUUGCUCUGGGAUGUGGAGUGUGCAGAAAUGCCCACACUUUUUAGAACACGCAGAUCCUUUGUCUACAGAGAGAAAAAUUGCCUUCAUCCCCCAAGAGGAUGCCAACAGAGGAUUGAGCAUCA
B11: ENSG00000107863:be:win_5401|CDS|ENSG00000107863|bound_else_gene|NA|bound_elsewhere_windowed (ssRNA)
RNA: GGGAGUUCUACAGUCCGACGAUCAGACAUACACUAGGAGGGCACAGAGAUGCUACCGAAAUCAGCGUUUUGAAUUUUUGGAAAGUGCAUGAGCAGAGCGGGGAGAGAGAAUCUGAACUUUCAGCUGUAAACCGGUUAAAACCACAACAGAGGAUUGAGCAUCA
B12: chr12:110350735:110350839:+|3pUTR|ENSG00000174437|unk|total|mutant (ssRNA)
RNA: GGGAGUUCUACAGUCCGACGAUCUACAGUUUGCUUAUUUAUAAAUUCAUUAAAAACACUACAGGUGUUGAAUGGUUAAAAUGCCGGCCUCCAGUUCAUUUUCAGUUAUUUUCUGAGUGUGCAGACAGCUAUUUCGCACUGUAUCAACAGAGGAUUGAGCAUCA
B13: chr2:189033597:189033698:-|3pUTR|ENSG00000204262|msi1|FALSE|unique (ssRNA)
RNA: GGGAGUUCUACAGUCCGACGAUCAAGAGUGGGGUAUAUAGAGCCACAACACAUGUUUAUUUUGCUUGGCUGCAGUUGAAAAAUAGAAAUUAGUGCCCUUUUGUGACCUCUCAUUCCAAGAUUGUCAAUUAAAAAUGAGUUUAACAACAGAGGAUUGAGCAUCA
B14: ENSG00000127995:stop:overlap|stop_codon|ENSG00000127995|stop_codon|NA|stop_codon (ssRNA)
RNA: GGGAGUUCUACAGUCCGACGAUCUAGCUGCAUUUUUUUGUGGACUCCUCAUCUUAUCAUCCAUUCAAGAUAAAUCAAAACAUUAGGUUCCAAAAAUUCUAAAAAACCUAAACUCUUCAGGCUACCUUUGUGUGUCUCUAGAAGCAACAGAGGAUUGAGCAUCA

In this assay the target is MSI1 full-length (mouse, UniProt Q61474 1-362). In words: nsRBNS (natural sequence RNA bind-n-seq); RBNS binding buffer (assumed for nsRBNS): 25 mM Tris pH 7.5, 150 mM KCl, 3 mM MgCl2, 0.01% Triton X-100, 500 ug/ml BSA, 20 U/ml SUPERase-In, 4 C; UNK is unkempt and MSI1 is Musashi-1; names of the RNAs are library labels; protein concentration not given here; high values mean tight binding.
Sequence of UniProt Q61474 (Q61474 whole entry): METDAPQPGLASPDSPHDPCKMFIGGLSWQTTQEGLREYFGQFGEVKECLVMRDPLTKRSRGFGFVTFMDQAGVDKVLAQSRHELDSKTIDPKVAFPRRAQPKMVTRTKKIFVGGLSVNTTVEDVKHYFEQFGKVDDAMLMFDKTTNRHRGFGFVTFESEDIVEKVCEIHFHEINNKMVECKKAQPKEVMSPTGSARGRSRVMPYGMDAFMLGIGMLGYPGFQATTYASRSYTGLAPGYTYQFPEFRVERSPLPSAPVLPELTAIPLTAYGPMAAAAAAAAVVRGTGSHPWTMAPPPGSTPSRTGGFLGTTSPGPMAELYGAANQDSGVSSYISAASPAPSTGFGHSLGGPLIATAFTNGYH
In the case of B1, the binding signal is 0.612 enrichment R.

Molecule B2 came in with a binding signal of 0.61 enrichment R.

Molecule B3 returned a binding signal of 1.17 enrichment R.

B4 returned a binding signal of 0.618 enrichment R.

On to B5, for which the binding signal stood at 0.732 enrichment R.

B6 registered a binding signal of 0.251 enrichment R.

Molecule B7 showed a binding signal of 0.258 enrichment R.

As for B8, the binding signal was 0.369 enrichment R.

In turn, B9 showed a binding signal of 0.947 enrichment R.

As for B10, the binding signal turned out to be 0.439 enrichment R.

Regarding B11, the binding signal is 0.546 enrichment R.

Consider B12, for which the binding signal came to 0.714 enrichment R.

For B13, the binding signal was 4.33 enrichment R.

B14 registered a binding signal of 0.482 enrichment R.
